Test [1] has as its target T1, dysbindin-1C (yeast two-hybrid fusion) (UniProt Q91WZ8).
T1 sequence: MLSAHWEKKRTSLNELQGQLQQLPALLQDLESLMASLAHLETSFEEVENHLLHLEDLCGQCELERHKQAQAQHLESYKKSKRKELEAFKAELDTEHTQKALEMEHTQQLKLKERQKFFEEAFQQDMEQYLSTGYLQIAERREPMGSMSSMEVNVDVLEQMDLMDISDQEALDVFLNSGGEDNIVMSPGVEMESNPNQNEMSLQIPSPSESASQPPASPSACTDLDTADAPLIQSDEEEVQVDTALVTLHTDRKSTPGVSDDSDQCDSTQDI
Nature of the test: two-hybrid; yeast two-hybrid interaction assay (Supplementary Fig. 6D).

Sequences of proteins named here, by UniProt entry; tags and fusion partners are left off.
UniProt O00429: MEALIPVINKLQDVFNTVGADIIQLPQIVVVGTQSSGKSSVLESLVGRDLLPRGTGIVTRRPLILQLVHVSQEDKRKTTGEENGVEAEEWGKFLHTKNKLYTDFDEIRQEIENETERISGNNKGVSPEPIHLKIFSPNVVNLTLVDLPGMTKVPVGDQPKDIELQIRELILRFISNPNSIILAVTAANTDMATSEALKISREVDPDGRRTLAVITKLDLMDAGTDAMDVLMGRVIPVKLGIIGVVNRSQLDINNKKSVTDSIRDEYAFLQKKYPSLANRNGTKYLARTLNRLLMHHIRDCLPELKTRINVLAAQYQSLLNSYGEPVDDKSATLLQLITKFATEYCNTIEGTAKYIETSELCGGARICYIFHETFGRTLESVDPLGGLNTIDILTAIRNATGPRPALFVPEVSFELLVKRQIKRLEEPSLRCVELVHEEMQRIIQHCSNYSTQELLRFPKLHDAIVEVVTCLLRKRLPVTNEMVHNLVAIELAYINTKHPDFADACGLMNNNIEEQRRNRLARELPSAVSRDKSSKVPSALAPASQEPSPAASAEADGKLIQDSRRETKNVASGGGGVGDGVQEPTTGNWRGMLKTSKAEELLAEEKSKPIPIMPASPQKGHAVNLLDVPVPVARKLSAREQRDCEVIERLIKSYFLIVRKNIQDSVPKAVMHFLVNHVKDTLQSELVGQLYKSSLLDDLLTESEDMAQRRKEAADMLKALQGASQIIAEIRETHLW
UniProt O35303: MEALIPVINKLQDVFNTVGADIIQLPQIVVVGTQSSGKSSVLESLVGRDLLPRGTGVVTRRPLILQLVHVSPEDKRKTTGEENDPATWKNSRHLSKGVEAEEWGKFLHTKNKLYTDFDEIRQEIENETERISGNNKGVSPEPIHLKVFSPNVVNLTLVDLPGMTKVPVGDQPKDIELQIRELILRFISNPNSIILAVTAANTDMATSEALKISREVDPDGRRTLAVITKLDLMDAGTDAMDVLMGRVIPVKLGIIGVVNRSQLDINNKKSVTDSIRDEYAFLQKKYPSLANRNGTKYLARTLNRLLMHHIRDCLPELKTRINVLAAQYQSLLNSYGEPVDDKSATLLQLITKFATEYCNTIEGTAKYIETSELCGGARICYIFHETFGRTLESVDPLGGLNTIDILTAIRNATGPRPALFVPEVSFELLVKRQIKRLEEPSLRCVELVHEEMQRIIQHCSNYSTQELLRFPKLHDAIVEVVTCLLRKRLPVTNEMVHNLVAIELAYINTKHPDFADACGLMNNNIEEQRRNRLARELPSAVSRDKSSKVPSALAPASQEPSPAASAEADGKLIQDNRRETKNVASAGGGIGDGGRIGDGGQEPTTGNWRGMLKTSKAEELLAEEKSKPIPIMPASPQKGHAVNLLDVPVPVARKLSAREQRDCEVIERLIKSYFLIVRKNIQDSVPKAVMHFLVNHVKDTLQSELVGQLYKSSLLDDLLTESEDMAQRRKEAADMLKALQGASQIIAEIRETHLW
UniProt Q8K1M6: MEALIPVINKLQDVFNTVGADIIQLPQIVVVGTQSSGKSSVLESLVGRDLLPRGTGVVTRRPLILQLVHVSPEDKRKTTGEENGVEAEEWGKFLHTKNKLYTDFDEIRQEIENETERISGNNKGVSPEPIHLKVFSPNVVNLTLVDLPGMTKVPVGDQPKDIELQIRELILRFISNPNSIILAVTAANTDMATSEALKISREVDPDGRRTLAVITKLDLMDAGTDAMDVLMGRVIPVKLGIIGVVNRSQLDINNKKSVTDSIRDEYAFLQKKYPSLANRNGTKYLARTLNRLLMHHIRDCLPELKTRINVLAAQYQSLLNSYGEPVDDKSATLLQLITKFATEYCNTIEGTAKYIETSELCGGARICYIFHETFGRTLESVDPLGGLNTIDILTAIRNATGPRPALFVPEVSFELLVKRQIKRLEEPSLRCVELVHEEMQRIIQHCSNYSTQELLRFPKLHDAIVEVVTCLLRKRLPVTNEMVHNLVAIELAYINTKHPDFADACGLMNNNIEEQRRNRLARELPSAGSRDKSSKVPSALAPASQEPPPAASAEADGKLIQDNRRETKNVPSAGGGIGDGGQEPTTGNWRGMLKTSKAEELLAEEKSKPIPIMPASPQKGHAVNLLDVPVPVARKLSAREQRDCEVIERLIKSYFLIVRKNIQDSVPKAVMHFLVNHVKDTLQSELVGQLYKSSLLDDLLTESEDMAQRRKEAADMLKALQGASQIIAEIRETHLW
UniProt Q9NQG6: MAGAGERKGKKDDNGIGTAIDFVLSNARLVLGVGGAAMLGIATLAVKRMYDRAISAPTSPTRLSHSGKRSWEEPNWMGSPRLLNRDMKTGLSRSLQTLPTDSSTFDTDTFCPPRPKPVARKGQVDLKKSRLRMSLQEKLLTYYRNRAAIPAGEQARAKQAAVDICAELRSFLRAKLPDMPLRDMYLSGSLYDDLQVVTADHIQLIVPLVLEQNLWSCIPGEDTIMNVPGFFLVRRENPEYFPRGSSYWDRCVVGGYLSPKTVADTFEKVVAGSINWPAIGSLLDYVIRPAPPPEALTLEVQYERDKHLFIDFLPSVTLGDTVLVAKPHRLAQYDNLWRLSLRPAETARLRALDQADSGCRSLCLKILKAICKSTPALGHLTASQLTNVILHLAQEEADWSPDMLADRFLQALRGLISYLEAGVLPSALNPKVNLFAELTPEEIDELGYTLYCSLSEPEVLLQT

Test [2] addresses Drp1 (yeast two-hybrid fusion) (UniProt O00429). The test is described as above.
The target of test [3] is T2, HA-tagged dysbindin-1C (UniProt Q91WZ8).
T2 sequence: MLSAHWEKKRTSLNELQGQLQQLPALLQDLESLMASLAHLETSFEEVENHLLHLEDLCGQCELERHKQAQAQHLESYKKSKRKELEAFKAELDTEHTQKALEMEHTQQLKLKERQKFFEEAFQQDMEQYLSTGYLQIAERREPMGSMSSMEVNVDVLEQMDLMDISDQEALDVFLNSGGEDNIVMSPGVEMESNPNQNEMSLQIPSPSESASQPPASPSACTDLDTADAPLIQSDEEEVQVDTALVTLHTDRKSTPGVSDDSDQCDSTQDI
The test can be described thus: co-IP; HEK-293 cells transfected with designated plasmids, with the N-terminal region of dysbindin-1A; immunoprecipitation with the anti-HA antibody (Fig. 4K).

Test [4] has as its target T3, HA-tagged dysbindin-1A (UniProt Q91WZ8).
T3 sequence: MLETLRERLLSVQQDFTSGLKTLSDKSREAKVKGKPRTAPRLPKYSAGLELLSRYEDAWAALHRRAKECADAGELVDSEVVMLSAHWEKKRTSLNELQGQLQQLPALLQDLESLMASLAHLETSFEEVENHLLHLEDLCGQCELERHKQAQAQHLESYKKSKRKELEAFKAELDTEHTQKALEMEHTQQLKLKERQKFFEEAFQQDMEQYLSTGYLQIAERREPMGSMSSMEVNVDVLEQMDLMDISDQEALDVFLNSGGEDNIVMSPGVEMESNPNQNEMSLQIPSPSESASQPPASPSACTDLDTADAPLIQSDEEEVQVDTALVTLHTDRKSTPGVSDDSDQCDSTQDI
Nature of the test: co-IP; HEK-293 cells transfected with YFP-Drp1 along with HA-tagged dysbindin-1C or -1A; immunoprecipitation with an anti-HA antibody 2 days later; blot for Drp1 (Fig. 4G).

For test [5], the target named is T2, HA-tagged dysbindin-1C. The description is as above.
Test [6] concerns the target T4, HA-dysbindin-1A (lentivirus, in cultured hippocampal neurons) (UniProt Q91WZ8).
T4 sequence: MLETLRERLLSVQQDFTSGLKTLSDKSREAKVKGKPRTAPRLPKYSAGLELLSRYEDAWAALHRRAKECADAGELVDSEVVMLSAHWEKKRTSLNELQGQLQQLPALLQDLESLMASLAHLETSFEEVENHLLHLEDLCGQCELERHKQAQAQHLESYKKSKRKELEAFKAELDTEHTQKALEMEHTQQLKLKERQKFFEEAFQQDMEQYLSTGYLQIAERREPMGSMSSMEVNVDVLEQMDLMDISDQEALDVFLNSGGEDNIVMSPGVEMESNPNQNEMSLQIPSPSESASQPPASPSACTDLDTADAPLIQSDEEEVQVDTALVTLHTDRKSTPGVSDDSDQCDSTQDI
The test can be described thus: co-IP; cultured hippocampal neurons transduced with lentivirus expressing HA-dysbindin-1C or -1A; immunoprecipitation with an anti-HA antibody; endogenous Drp1 detected (Fig. 4H).

In test [7] the target is T5, HA-dysbindin-1C (lentivirus, in cultured hippocampal neurons) (UniProt Q91WZ8).
T5 sequence: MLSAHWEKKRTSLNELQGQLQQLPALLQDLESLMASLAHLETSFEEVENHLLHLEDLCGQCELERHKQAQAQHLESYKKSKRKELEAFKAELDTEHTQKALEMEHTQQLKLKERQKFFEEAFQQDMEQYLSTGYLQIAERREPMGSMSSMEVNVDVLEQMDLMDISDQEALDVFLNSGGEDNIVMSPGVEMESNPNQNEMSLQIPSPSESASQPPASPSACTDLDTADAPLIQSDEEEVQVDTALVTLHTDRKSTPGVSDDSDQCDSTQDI
The description is as above.

The target in test [8] is endogenous Drp1 of cultured hippocampal neurons (not stated (rat or mouse neurons cultured)) (UniProt O35303). Nature of the test: cross-linking; total lysates and mitochondrial fraction of cultured hippocampal neurons transduced with lentivirus (vector, dysbindin-1C, dysbindin-1A), crosslinked and separated by gel electrophoresis, blot for Drp1 monomer and higher-order oligomers; also after KCl (50 mM).

For test [9], the target named is endogenous Drp1 of mouse hippocampus (mouse (endogenous in hippocampus)) (UniProt Q8K1M6). The test can be described thus: cross-linking; total lysates and mitochondrial fraction of the hippocampus or hippocampal slices of WT and sdy mice, crosslinked and separated by gel electrophoresis, blot for Drp1 monomer and higher-order oligomers; also after oligomycin (10 uM, 30 min) or CCH.

For test [10], the target named is T2, HA-tagged dysbindin-1C. The test can be described thus: co-IP; HEK-293 cells transfected with HA-tagged dysbindin-1C; immunoprecipitation with an anti-HA antibody 3 days later; blots for Mid49, Mid51 and Mff (Fig. 4L).
Test [11] concerns the target endogenous Drp1 of mouse hippocampus (mouse (endogenous in hippocampus)) (UniProt Q8K1M6). Nature of the test: co-IP; lysate of the hippocampus of WT mice; immunoprecipitation with an anti-Drp1 antibody (Fig. 4I).
In test [12] the target is endogenous Drp1 of HEK-293 cells (human (endogenous in HEK-293)) (UniProt O00429). The test can be described thus: co-IP; HEK-293 cells transfected with the dysbindin-1C or dysbindin-1A plasmid or vector; endogenous Drp1 pulled down with the Drp1 antibody; blots for Mid49, Mid51 and Mff (Fig. 4M, N).

Results are given in words; binding and its absence hold for the method and conditions named. For part of these data: In cells and extracts the contact can be indirect. Some results given as binding are weak or reduced against the parent protein; the word gives no strength. For part of these data: Sequences can lack the tags named with a protein.

For “Drp1 (yeast two-hybrid fusion) (from UniProt O00429 1-736)”, the binding entry in [1] was “binds”. Turning to “Mid51 (yeast two-hybrid fusion) (from UniProt Q9NQG6 1-463)”, the binding entry in [2] and in test [1] was “binds” in each case. In the case of YFP-Drp1 (from UniProt O00429 1-736), the values for the binding entry in test [3], in test [4] and in test [5] were “binds”, “no binding” and “binds”, respectively. As to “endogenous Drp1 of cultured hippocampal neurons (from UniProt O35303 1-755)”, the binding entry in test [6] was “no binding”; in test [7], “binds”; in test [8] it was “binds”.

Turning to “endogenous Drp1 of mouse hippocampus (from UniProt Q8K1M6 1-736)”, in [9], the binding entry is listed as “binds”. “mitochondrial dynamics protein of 51 kDa (Mid51), in HEK-293 cells (from UniProt Q9NQG6 1-463)”: in test [10], the binding entry is listed as “binds”.

B1: endogenous dysbindin-1C of mouse hippocampus (protein, UniProt Q91WZ8-3 1-271)
chain: MLSAHWEKKRTSLNELQGQLQQLPALLQDLESLMASLAHLETSFEEVENHLLHLEDLCGQCELERHKQAQAQHLESYKKSKRKELEAFKAELDTEHTQKALEMEHTQQLKLKERQKFFEEAFQQDMEQYLSTGYLQIAERREPMGSMSSMEVNVDVLEQMDLMDISDQEALDVFLNSGGEDNIVMSPGVEMESNPNQNEMSLQIPSPSESASQPPASPSACTDLDTADAPLIQSDEEEVQVDTALVTLHTDRKSTPGVSDDSDQCDSTQDI
As for B1, the binding entry in test [11] is recorded as “binds”.

B2: mitochondrial fission factor (Mff), in HEK-293 cells (protein, UniProt Q9GZY8 1-342)
chain: MSKGTSSDTSLGRVSRAAFPSPTAAEMAEISRIQYEMEYTEGISQRMRVPEKLKVAPPNADLEQGFQEGVPNASVIMQVPERIVVAGNNEDVSFSRPADLDLIQSTPFKPLALKTPPRVLTLSERPLDFLDLERPPTTPQNEEIRAVGRLKRERSMSENAVRQNGQLVRNDSLWHRSDSAPRNKISRFQAPISAPEYTVTPSPQQARVCPPHMLPEDGANLSSARGILSLIQSSTRRAYQQILDVLDENRRPVLRGGSAAATSNPHHDNVRYGISNIDTTIEGTSDDLTVVDAASLRRQIIKLNRRLQLLEEENKERAKREMVMYSITVAFWLLNSWLWFRR
On to B2, for which the binding result in test [10] is “no binding”.

B3: Mff (yeast two-hybrid fusion) (protein, UniProt Q9GZY8 1-342)
chain: MSKGTSSDTSLGRVSRAAFPSPTAAEMAEISRIQYEMEYTEGISQRMRVPEKLKVAPPNADLEQGFQEGVPNASVIMQVPERIVVAGNNEDVSFSRPADLDLIQSTPFKPLALKTPPRVLTLSERPLDFLDLERPPTTPQNEEIRAVGRLKRERSMSENAVRQNGQLVRNDSLWHRSDSAPRNKISRFQAPISAPEYTVTPSPQQARVCPPHMLPEDGANLSSARGILSLIQSSTRRAYQQILDVLDENRRPVLRGGSAAATSNPHHDNVRYGISNIDTTIEGTSDDLTVVDAASLRRQIIKLNRRLQLLEEENKERAKREMVMYSITVAFWLLNSWLWFRR
For the molecule B3, the binding result in test [1] was “no binding”.

B4: Mid49 (yeast two-hybrid fusion) (protein, UniProt Q96C03 1-454)
chain: MAEFSQKRGKRRSDEGLGSMVDFLLANARLVLGVGGAAVLGIATLAVKRFIDRATSPRDEDDTKADSWKELSLLKATPHLQPRPPPAALSQPVLPLAPSSSAPEGPAETDPEVTPQLSSPAPLCLTLQERLLAFERDRVTIPAAQVALAKQLAGDIALELQAYFRSKFPELPFGAFVPGGPLYDGLQAGAADHVRLLVPLVLEPGLWSLVPGVDTVARDPRCWAVRRTQLEFCPRGSSPWDRFLVGGYLSSRVLLELLRKALAASVNWPAIGSLLGCLIRPSMASEELLLEVQHERLELTVAVLVAVPGVDADDRLLLAWPLEGLAGNLWLQDLYPVEAARLRALDDHDAGTRRRLLLLLCAVCRGCSALGQLGRGHLTQVVLRLGEDNVDWTEEALGERFLQALELLIGSLEQASLPCHFNPSVNLFSSLREEEIDDIGYALYSGLQEPEGLL
In the case of B4, the binding entry in test [2] and in [1] was “binds” in each case.

B5: mitochondrial dynamics protein of 49 kDa (Mid49), in HEK-293 cells (protein, UniProt Q96C03 1-454)
chain: MAEFSQKRGKRRSDEGLGSMVDFLLANARLVLGVGGAAVLGIATLAVKRFIDRATSPRDEDDTKADSWKELSLLKATPHLQPRPPPAALSQPVLPLAPSSSAPEGPAETDPEVTPQLSSPAPLCLTLQERLLAFERDRVTIPAAQVALAKQLAGDIALELQAYFRSKFPELPFGAFVPGGPLYDGLQAGAADHVRLLVPLVLEPGLWSLVPGVDTVARDPRCWAVRRTQLEFCPRGSSPWDRFLVGGYLSSRVLLELLRKALAASVNWPAIGSLLGCLIRPSMASEELLLEVQHERLELTVAVLVAVPGVDADDRLLLAWPLEGLAGNLWLQDLYPVEAARLRALDDHDAGTRRRLLLLLCAVCRGCSALGQLGRGHLTQVVLRLGEDNVDWTEEALGERFLQALELLIGSLEQASLPCHFNPSVNLFSSLREEEIDDIGYALYSGLQEPEGLL
As to B5, the binding result in test [10] and in test [12] was “binds” each time.

The record behind these values is article PMC8364574.
